# Measured values from the supplement of paper PMC8728848.
# This is one part of the list.
# B1: AAL (Aleuria aurantia), P18891 (protein)
# chain: PTEFLYTSKIAAISWAATGGRQQRVYFQDLNGKIREAQRGGDNPWTGGSSQNVIGEAKLFSPLAAVTWKSAQGIQIRVYCVNKDNILSEFVYDGSKWITGQLGSVGVKVGSNSKLAALQWGGSESAPPNIRVYYQKSNGSGSSIHEYVWSGKWTAGASFGSTVPGTGIGATAIGPGRLRIYYQATDNKIREHCWDSNSWYVGGFSASASAGVSIAAISWGSTPNIRVYWQKGREELYEAAYGGSWNTPGQIKDASRPTPSLPDTFIAANSSGNIDISVFFQASGVSLQQWQWISGKGWSIGAVVPTGTPAGW
# What was measured:
# Assay in all cases: glycan array binding signal (z-score within array); higher = stronger binding
# Conditions in all cases: glycan notation: IUPAC condensed, linker removed
# [1] = target: Fuc(a1-2)[GalNAc(a1-3)]Gal(b1-4)Glc
# Outline: (§1)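 From the Consortium for Functional Glycomics database, 3228 arrays were curated, keeping only those whose protein sequence was available. Binding is given as a within-array Z-score averaged across arrays sharing a protein sequence and across linkers. Negative Z-scores can be read as non-binding.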
# [2] = target: Fuc(a1-2)[GalNAc(a1-3)]Gal(b1-4)GlcNAc
# Outline: as §1
# [3] = target: Fuc(a1-2)[GalNAc(a1-3)]Gal(b1-4)GlcNAc(b1-2)Man(a1-3)[Fuc(a1-2)[GalNAc(a1-3)]Gal(b1-4)GlcNAc(b1-2)Man(a1-6)]Man(b1-4)GlcNAc(b1-4)GlcNAc
# Outline: as §1
# [4] = target: Fuc(a1-2)[GalNAc(a1-3)]Gal(b1-4)GlcNAc(b1-3)Gal(b1-4)GlcNAc
# Outline: as §1
# [5] = target: Fuc(a1-2)[GalNAc(a1-3)]Gal(b1-4)GlcNAc(b1-3)Gal(b1-4)GlcNAc(b1-3)Gal(b1-4)GlcNAc
# Outline: as §1
# [6] = target: Fuc(a1-2)[GalNAc(a1-3)]Gal(b1-4)GlcNAc(b1-3)GalNAc
# Outline: as §1
# [7] = target: Fuc(a1-2)[GalNAc(a1-3)]Gal(b1-4)[Fuc(a1-3)]GlcNAc
# Outline: as §1
# [8] = target: Fuc(a1-2)[GalNAc(a1-3)]Gal(b1-4)[Fuc(a1-3)]GlcNAc(b1-3)GalNAc
# Outline: as §1
# [9] = target: Fuc(a1-2)[GalNAc(a1-4)]Gal(b1-4)GlcNAc
# Outline: as §1
# [10] = target: Fuc(a1-2)[GalNAc(b1-3)]Gal
# Outline: as §1
# Fuc(a1-3)GlcNAc = target: Fuc(a1-3)GlcNAc
# Outline: as §1
# [11] = target: Fuc(a1-3)[Gal(b1-4)]Glc6S
# Outline: as §1
# [12] = target: Fuc(a1-3)[Gal(b1-4)]GlcNAc
# Outline: as §1
# [13] = target: Fuc(a1-3)[Gal(b1-4)]GlcNAc(b1-2)Man(a1-3)[Fuc(a1-3)[Gal(b1-4)]GlcNAc(b1-2)Man(a1-6)]Man(b1-4)GlcNAc(b1-4)GlcNAc
# Outline: as §1
# [14] = target: Fuc(a1-3)[Gal(b1-4)]GlcNAc(b1-2)Man(a1-3)[Fuc(a1-3)[Gal(b1-4)]GlcNAc(b1-2)Man(a1-6)]Man(b1-4)GlcNAc(b1-4)[Fuc(a1-6)]GlcNAc
# Outline: as §1
# [15] = target: Fuc(a1-3)[Gal(b1-4)]GlcNAc(b1-3)Gal(b1-3)[Fuc(a1-4)]GlcNAc
# Outline: as §1
# [16] = target: Fuc(a1-3)[Gal(b1-4)]GlcNAc(b1-3)GalNAc
# Outline: as §1
# [17] = target: Fuc(a1-3)[Gal(b1-4)]GlcNAc(b1-4)Gal(b1-4)[Fuc(a1-3)]GlcNAc
# Outline: as §1
# [18] = target: Fuc(a1-3)[Gal(b1-4)]GlcNAc(b1-4)Gal(b1-4)[Fuc(a1-3)]GlcNAc(b1-4)Gal(b1-4)[Fuc(a1-3)]GlcNAc
# Outline: as §1
# [19] = target: Fuc(a1-3)[Gal(b1-4)]GlcNAc(b1-6)[Gal(b1-3)GlcNAc(b1-3)]Gal(b1-4)Glc
# Outline: as §1
# [20] = target: Fuc(a1-3)[Gal(b1-4)]GlcNAc6S
# Outline: as §1
# [21] = target: Fuc(a1-3)[Gal3S(b1-4)]Glc
# Outline: as §1
# [22] = target: Fuc(a1-3)[Gal3S(b1-4)]Glc6S
# Outline: as §1
# [23] = target: Fuc(a1-3)[Gal3S(b1-4)]GlcNAc
# Outline: as §1
# [24] = target: Fuc(a1-3)[Gal3S(b1-4)]GlcNAc6S
# Outline: as §1
# [25] = target: Fuc(a1-3)[GalNAc(b1-4)]Gal(b1-4)GlcNAc
# Outline: as §1
# [26] = target: Fuc(a1-3)[GalNAc(b1-4)]GlcNAc
# Outline: as §1
# Fuc(a1-4)GlcNAc = target: Fuc(a1-4)GlcNAc
# Outline: as §1
# Fuc(b1-3)GlcNAc = target: Fuc(b1-3)GlcNAc
# Outline: as §1
# Gal(a1-2)Gal = target: Gal(a1-2)Gal
# Outline: as §1
# Gal(a1-3)Gal = target: Gal(a1-3)Gal
# Outline: as §1
# Gal(a1-3)Gal(b1-3)Glc = target: Gal(a1-3)Gal(b1-3)Glc
# Outline: as §1
# Gal(a1-3)Gal(b1-3)GlcNAc = target: Gal(a1-3)Gal(b1-3)GlcNAc
# Outline: as §1
# [27] = target: Gal(a1-3)Gal(b1-3)GlcNAc(b1-2)Man(a1-3)[Gal(a1-3)Gal(b1-3)GlcNAc(b1-2)Man(a1-6)]Man(b1-4)GlcNAc(b1-4)GlcNAc
# Outline: as §1
# [28] = target: Gal(a1-3)Gal(b1-3)GlcNAc(b1-3)GalNAc
# Outline: as §1
# [29] = target: Gal(a1-3)Gal(b1-3)[Fuc(a1-4)]GlcNAc(b1-2)Man(a1-3)[Gal(a1-3)Gal(b1-3)[Fuc(a1-4)]GlcNAc(b1-2)Man(a1-6)]Man(b1-4)GlcNAc(b1-4)GlcNAc
# Outline: as §1
# Gal(a1-3)Gal(b1-4)Glc = target: Gal(a1-3)Gal(b1-4)Glc
# Outline: as §1
binder,measurement,setting,value
B1,glycan array binding signal (z-score),[1],-0.14
same,glycan array binding signal (z-score),[2],-0.289
same,glycan array binding signal (z-score),[3],-0.399
same,glycan array binding signal (z-score),[4],-0.392
same,glycan array binding signal (z-score),[5],-0.436
same,glycan array binding signal (z-score),[6],-0.439
same,glycan array binding signal (z-score),[7],0.216
same,glycan array binding signal (z-score),[8],-0.404
same,glycan array binding signal (z-score),[9],2.06
same,glycan array binding signal (z-score),[10],0.553
same,glycan array binding signal (z-score),Fuc(a1-3)GlcNAc,2.85
same,glycan array binding signal (z-score),[11],0.804
same,glycan array binding signal (z-score),[12],1.53
same,glycan array binding signal (z-score),[13],0.896
same,glycan array binding signal (z-score),[14],0.087
same,glycan array binding signal (z-score),[15],1.6
same,glycan array binding signal (z-score),[16],0.52
same,glycan array binding signal (z-score),[17],2
same,glycan array binding signal (z-score),[18],2.06
same,glycan array binding signal (z-score),[19],0.607
same,glycan array binding signal (z-score),[20],1.23
same,glycan array binding signal (z-score),[21],1.73
same,glycan array binding signal (z-score),[22],1.07
same,glycan array binding signal (z-score),[23],1.76
same,glycan array binding signal (z-score),[24],2.28
same,glycan array binding signal (z-score),[25],1.61
same,glycan array binding signal (z-score),[26],1.18
same,glycan array binding signal (z-score),Fuc(a1-4)GlcNAc,1.99
same,glycan array binding signal (z-score),Fuc(b1-3)GlcNAc,2.33
same,glycan array binding signal (z-score),Gal(a1-2)Gal,-0.511
same,glycan array binding signal (z-score),Gal(a1-3)Gal,-0.51
same,glycan array binding signal (z-score),Gal(a1-3)Gal(b1-3)Glc,-0.578
same,glycan array binding signal (z-score),Gal(a1-3)Gal(b1-3)GlcNAc,-0.507
same,glycan array binding signal (z-score),[27],-0.415
same,glycan array binding signal (z-score),[28],-0.398
same,glycan array binding signal (z-score),[29],-0.419
same,glycan array binding signal (z-score),Gal(a1-3)Gal(b1-4)Glc,-0.474
